Among all 310,000 compounds or so, about 2,200 (0.71%) showed an effect of 50% or more. Effects have a minus sign here. The list shows a part of the results.
target: human ether-à-go-go-related gene (hERG) potassium channel (human, UniProt Q12809); test: primary screen, population patch clamp on CHO cells stably expressing hERG
Sequence (Q12809 whole entry, looked up): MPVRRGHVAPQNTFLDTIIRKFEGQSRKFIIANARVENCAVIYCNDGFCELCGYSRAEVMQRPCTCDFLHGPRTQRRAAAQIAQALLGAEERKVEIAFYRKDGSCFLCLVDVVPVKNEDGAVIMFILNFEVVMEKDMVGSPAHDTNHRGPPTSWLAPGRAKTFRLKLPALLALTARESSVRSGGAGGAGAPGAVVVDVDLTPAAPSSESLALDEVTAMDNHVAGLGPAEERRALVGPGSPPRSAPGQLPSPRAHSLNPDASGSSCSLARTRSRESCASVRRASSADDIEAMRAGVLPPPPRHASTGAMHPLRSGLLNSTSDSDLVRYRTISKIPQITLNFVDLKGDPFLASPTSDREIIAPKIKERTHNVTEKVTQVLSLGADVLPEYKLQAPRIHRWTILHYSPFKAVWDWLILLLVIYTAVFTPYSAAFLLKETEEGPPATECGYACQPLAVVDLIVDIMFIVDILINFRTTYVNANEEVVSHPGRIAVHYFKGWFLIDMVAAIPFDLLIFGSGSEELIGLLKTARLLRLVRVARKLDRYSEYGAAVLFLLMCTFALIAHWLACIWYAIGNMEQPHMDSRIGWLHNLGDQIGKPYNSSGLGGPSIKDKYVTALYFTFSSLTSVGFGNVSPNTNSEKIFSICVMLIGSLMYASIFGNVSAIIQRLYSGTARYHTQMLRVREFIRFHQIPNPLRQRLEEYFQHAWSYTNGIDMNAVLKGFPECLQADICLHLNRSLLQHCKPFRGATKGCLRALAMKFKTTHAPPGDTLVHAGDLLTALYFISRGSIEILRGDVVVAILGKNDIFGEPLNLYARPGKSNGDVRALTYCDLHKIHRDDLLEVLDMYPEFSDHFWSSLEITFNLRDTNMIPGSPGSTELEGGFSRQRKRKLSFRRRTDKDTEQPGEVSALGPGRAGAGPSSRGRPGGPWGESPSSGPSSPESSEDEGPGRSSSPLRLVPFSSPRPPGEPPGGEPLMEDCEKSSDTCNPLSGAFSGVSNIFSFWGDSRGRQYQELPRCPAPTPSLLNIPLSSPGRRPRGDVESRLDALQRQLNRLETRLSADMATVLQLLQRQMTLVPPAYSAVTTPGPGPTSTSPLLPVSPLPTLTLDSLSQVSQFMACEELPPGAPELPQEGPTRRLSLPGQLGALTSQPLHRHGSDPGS

Structure (SMILES)	hERG current change (%, negative = inhibition) at 1uM [%]
CCOC(=O)C1CCCN(C(=O)CSc2ccc(NC(C)=O)cc2)C1 (centres unmarked)	8.95
Nc1nc(-c2ccc(Cl)cc2)c(N=Nc2ccc(S(=O)(=O)N3CCOCC3)cc2)s1	0.0157
O=C(C1CCN(Cc2ccc(Cl)cc2)CC1)N1CCN(C(c2ccccc2)c2ccccc2)CC1	11
COc1cccc(N2CCN(c3ccc4nnc(CCC(=O)Nc5ncccc5C)n4n3)CC2)c1	9.78
CC(C)CCC(CC(C)O)C(=O)NNC(=S)Nc1ccccc1 (centres unmarked)	9.01
O=[N+]([O-])c1ccccc1Oc1ncccc1[N+](=O)[O-]	21
COc1ccccc1C(=O)NCCCCNC(=O)c1ccccc1OC	9.03
Cc1cccc(C)c1NC(=O)CS(=O)CC(=O)NC1CCN(Cc2ccccc2)CC1 (centres unmarked)	7.87
CCOc1ccc(NC(=S)N2C3CCCC2CC(NC(=O)C2CC2)C3)cc1 (centres unmarked)	3.39
Cc1cccc(-c2cc3nc(C)cc(NCCCN(C)C)n3n2)c1	1.77
CC(=O)c1cc(F)c(N2CCN(C(=O)Cc3ccccc3)CC2)cc1C	4.07
Cc1cc(C)n(C(C)CC(=O)Nc2ccc3c(c2)OCCO3)n1 (centres unmarked)	-1.68
CC(CCC(=O)O)C1CCC2C3C(O)CC4CC(O)CCC4(C)C3CC(O)C12C (centres unmarked)	14.6
OCc1nnn(-c2ccccc2)c1CO	12.4
Cc1ccccc1-c1cc(C(=O)N2CCCC2)c2ccccc2n1	-19.6
COc1cccc(CNC(=O)c2nnn(CC(=O)Nc3cc(Cl)ccc3C)c2N)c1	11.1
O=C(Nc1sc2c(c1C(=O)NCCCO)CCCC2)c1ccccc1	11.2
Cc1cc(C)cc(NC(=O)NNC(=O)c2cc3occc3[nH]2)c1	5.1
Nc1ccccc1Nc1nc2ccccc2[nH]1	1.82
CC(C)(C)OC(=O)n1cc(CCO)c2ccccc21	11.1
COC(=O)c1ccc2c(=O)n(CCN3CCOCC3)c(SCC(=O)C(C)(C)C)nc2c1	-14.2
COC(=O)C1=C(N)Oc2cc(C)[nH]c(=O)c2C1c1cccnc1 (centres unmarked)	17.5
Cc1ccc(OCCOc2ccc(S(=O)(=O)N3CCCC3)cc2C(N)=O)cc1	3.42

Structure (SMILES)	hERG current change (%, negative = inhibition) at 1uM [%]
CC(C)N(C)Cc1nnnn1CC(=O)NCc1cc(F)cc(C(F)(F)F)c1	8.5
CCOC(=O)c1c(NC(=O)c2cc(C)on2)c2cc([N+](=O)[O-])ccc2n1C	17.4
CCC(C)[C@H](NC(=O)C1CC(=O)N(c2ccc(OC)cc2)C1)C(=O)N1CCCCC1 (some centres unmarked)	13.5
O=C(c1ccc(Cl)cc1)N1CCCCC(Sc2nnc(-c3ccc4c(c3)OCO4)o2)C1=O (centres unmarked)	16.5
COc1ccc2c(c1)CCc1c(C(=O)N3CC4(C)CC3CC(C)(C)C4)noc1-2 (centres unmarked)	-8.3
Cc1c(C(=O)N(C)c2ccccc2Cl)cnn1-c1ccccc1	7.2
CC(C)Cc1nc(SCC(=O)NCc2ccccc2)n[nH]1	10.8
O=C(CC1C(=O)NCCN1Cc1ccc(F)cc1Cl)NCc1ccon1 (centres unmarked)	17.1
Cc1cc([N+](=O)[O-])nn1CC(=O)N1c2ccccc2CC1C (centres unmarked)	8.06
c1cncc(-c2nc(-c3ccc4c(c3)OCO4)cs2)c1	17.3
O=c1[nH]cc(S(=O)(=O)NCc2ccccc2)c(=O)[nH]1	17.4
C/C(Cl)=C\Cn1c(N2CCCC2)nc2c1c(=O)[nH]c(=O)n2C	-3.57
CC1=C/C(=N\NC(=O)c2cccs2)CC(C)(C)C1	11
O=C(CN(c1cccc([N+](=O)[O-])c1)S(=O)(=O)c1ccccc1)N1CCCCC1	2.23
COc1ccc(OC)c(Cc2nnc(CCC(=O)NC3CCCC3)o2)c1	7.43
CN(C)C(=S)c1ccccc1	2.16
Cc1ccc(/C=C(\NC(=O)c2ccc(C)cc2)C(=O)NCCCn2ccnc2)cc1	-87
COc1ccccc1C(=O)NCC(=O)NC1CCCc2ccccc21 (centres unmarked)	5.96
CCn1c(/C=C/c2cc(Br)ccc2O)nc2ccccc2c1=O	17
Cc1no[n+]([O-])c1COc1ccc(/C=N/n2nnnc2N)cc1	6.73
CC(C)OP(=O)(c1ccc(N(C)C)cc1)C(O)c1c(Cl)cccc1Cl (centres unmarked)	-3.92
COc1ccc(CN(C(=O)CCC(=O)Nc2cc(C)on2)C(C(=O)NC(C)(C)C)c2cccc(OC)c2OC)cc1 (centres unmarked)	10.1
COc1ccc(CC(=O)NNC(=O)CCC(=O)Nc2cc(C)ccc2C)cc1	12.8

Structure (SMILES)	hERG current change (%, negative = inhibition) at 1uM [%]
COc1ccc(NC(=S)NCCc2c[nH]c3ccccc23)c(OC)c1	9.68
Cc1cc(C)n2nc(SCC(=O)N(C)C3CCCCC3)nc2n1	-9.19
CCC(=O)Nc1cccc(C2=NOC3(C2)C[C@H](C(N)=O)N(C(=O)c2ccc(Cl)cc2)C3)c1 (some centres unmarked)	12.3
Cc1ccc(C(=O)NCC2CCCO2)o1 (centres unmarked)	3.43
Cc1ccc(NP(=O)(c2ccccc2)c2nc3ccccc3s2)cc1 (centres unmarked)	2.14
Cc1cc2c(c(=O)o1)C(CC(C)C)C(C#N)=C(N)O2 (centres unmarked)	0.104
COC(=O)COc1cccc(NC(=O)C(c2ccccc2)c2ccccc2)c1	14.9
O=C(Nc1nc2ccc(F)cc2s1)c1ccc(N2CCCC2=O)cc1	17.1
CC1=NN(C(=O)c2ccccc2Cl)C(O)(c2cccnc2)C1 (centres unmarked)	12.8
COc1ccc(/C=C/c2noc(-c3ccccc3O)n2)cc1	7.62
CCn1c2ccccc2c2cc(/C=N/n3cn[nH]c3=S)ccc21	16
O=C(O)c1cc(-c2ccccc2)nc2ccccc12	15.2
Cl.N=C(N)c1ccc(N)cc1	14.2
Cc1cc(S(=O)(=O)NC(C)C)ccc1OCC(=O)NCc1ccccc1	6.97
COc1ccc2c(c1)CCC1C2=NN(/C(C)=C\C(C)=O)C1c1ccc(F)cc1 (centres unmarked)	4.03
Cc1nc2ccc(NC(=O)c3cccs3)cc2s1	15.9
Brc1cccc(-c2nnc(SCc3ccon3)n2-c2ccccc2)c1	-6.13
COCCNC(=O)c1cnn2c(C(F)(F)F)cc(-c3ccc4c(c3)OCO4)nc12	-7.42
Cc1cc(NC(=O)Cn2nc(C(F)(F)F)c3c2CCCC3)no1	2.49
C=CCS(=O)(=O)c1cccc2cccnc12	10.1
O=C(CSc1cccc(C(F)(F)F)c1)N1CCN(S(=O)(=O)c2ccccc2)CC1	-0.365
O=S(=O)(c1ccc(-c2nnco2)cc1)N1CCCCC1	13.4
Cc1ccnc(NC(=O)C2CCN(S(=O)(=O)c3ccc4ccccc4c3)CC2)c1	5.86

Structure (SMILES)	hERG current change (%, negative = inhibition) at 1uM [%]
COc1cc(C(C)=O)ccc1OCC(O)CN1CCN(c2ccc(C)cc2C)CC1 (centres unmarked)	-6.48
COc1ccccc1Oc1ccc(NC(=O)Cc2ccccc2)cc1	11.7
COc1cc(NS(=O)(=O)c2ccc(NC(=O)c3ccc(S(=O)(=O)N4CCCC4)cc3)cc2)ncn1	16.3
O=[N+]([O-])c1ccc(NCc2ccncc2)cc1	10.1
CC(C)NC(=O)/C(=N\O)c1ccccc1	-2
Cc1cc(NC(=O)C(C)SCC(=O)OCC(=O)Nc2c(C)cccc2C(C)C)no1 (centres unmarked)	6.36
CC(C)Cc1nnc(NC(=O)CCC(=O)Nc2ccc(F)cc2)s1	0.226
Cc1nc([N+](=O)[O-])cn1CC(O)c1ccc(Cl)cc1 (centres unmarked)	4.78
CSc1ncccc1C(=O)N1CCCC(CCC(=O)NCc2ccc(F)c(F)c2)C1 (centres unmarked)	6.69
COC(=O)c1ccc(N2CCC(c3cc(-c4ccc(OC)cc4)n[nH]3)CC2)c([N+](=O)[O-])c1	17.1
O=C(Nc1nc(-c2cc3ccccc3oc2=O)cs1)c1ccco1	12.2
COc1ccc(C)cc1-n1nnnc1SCc1csc(C)n1	-4.07
CC1(C)Cc2nc3sc4c(SCC(=O)NCc5ccco5)ncnc4c3cc2CO1	15.7
O=C(NCc1cccs1)C(=O)NCC1OCCCN1S(=O)(=O)c1cc(F)ccc1F (centres unmarked)	5.58
CCOC(=O)c1ccc(-c2ccc(C=O)o2)cc1	16.1
CN(C)c1ccc(C=Nc2ccccc2)cc1	13.7
O=C(Nc1ccc(NS(=O)(=O)c2ccccc2)cc1)c1ccccc1	12.9
Cc1cccc(N(CC(=O)NC(C)(C)C)C(=O)CS(=O)CC(=O)Nc2ccc3c(c2)OCO3)c1 (centres unmarked)	9.48
COc1ccc(C(c2nnnn2CC2CCCO2)N2CCN(c3ccc(F)cc3)CC2)cc1.Cl (centres unmarked)	-11.5
COC(=O)c1ccc(C(=O)N2CCCC(Nc3ccc(C(C)C)cc3)C2)cc1 (centres unmarked)	3.4
